# Data taken from PubChem BioAssay AID488969 (Vanderbilt High Throughput Screening Facility, 2010).
# The full ranking holds about 110,000 compounds; the median of “z-score” is about -0.1, and the highest 2% start at about 2. The list shows a part of the results. Activity calls are given as the source filed them.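 The calls were made as follows: active = z-score in the third read window above 3 or below -3; inactive = the rest.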
# Target: Metabotropic glutamate receptor 8 (Rattus norvegicus) (UniProt P70579)
# Test: mGluR8 Gi/Go-coupled signaling modulation – cell-based, rat, thallium flux, HTS, primary screen (AID 488969)
# Conditions: HEK293 rat mGluR8, GIRK (G protein-gated inwardly rectifying potassium channel) thallium flux, FluoZin2; at 10 µM; stronger effect = higher value; submaximal glutamate (EC20) added with thallium
# Chain of UniProt P70579 (P70579 whole entry, looked up): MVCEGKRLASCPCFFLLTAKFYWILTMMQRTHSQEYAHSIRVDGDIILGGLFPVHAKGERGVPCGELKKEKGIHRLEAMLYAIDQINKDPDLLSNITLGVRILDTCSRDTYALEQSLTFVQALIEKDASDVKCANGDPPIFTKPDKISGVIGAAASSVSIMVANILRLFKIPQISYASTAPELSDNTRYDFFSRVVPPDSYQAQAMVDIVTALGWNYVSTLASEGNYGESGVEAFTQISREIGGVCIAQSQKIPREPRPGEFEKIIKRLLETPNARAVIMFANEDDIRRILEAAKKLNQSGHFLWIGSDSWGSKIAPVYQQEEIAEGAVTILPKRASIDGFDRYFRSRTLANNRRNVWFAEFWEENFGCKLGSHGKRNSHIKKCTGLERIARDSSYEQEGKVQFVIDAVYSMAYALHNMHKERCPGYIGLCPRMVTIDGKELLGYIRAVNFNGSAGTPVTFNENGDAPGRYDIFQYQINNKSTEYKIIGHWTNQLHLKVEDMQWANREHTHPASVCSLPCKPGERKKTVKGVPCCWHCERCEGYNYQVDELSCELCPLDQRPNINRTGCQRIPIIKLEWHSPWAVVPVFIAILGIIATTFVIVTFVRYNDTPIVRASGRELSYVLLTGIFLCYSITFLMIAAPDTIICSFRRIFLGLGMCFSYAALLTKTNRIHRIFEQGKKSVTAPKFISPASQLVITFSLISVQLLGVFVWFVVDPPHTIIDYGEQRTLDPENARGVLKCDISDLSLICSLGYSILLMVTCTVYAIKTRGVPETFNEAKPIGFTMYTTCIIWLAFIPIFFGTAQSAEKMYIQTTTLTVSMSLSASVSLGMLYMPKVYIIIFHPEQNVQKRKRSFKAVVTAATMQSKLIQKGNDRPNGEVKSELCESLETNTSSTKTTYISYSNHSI
row,Compound,z-score
1,CCCCC(=O)Nc1sc2c(c1C(=O)OCC)CCC(C=O)=C2Cl,-0.1
2,COc1ccc(NC(=O)NC(C)(C(F)(F)F)C(F)(F)F)cc1,1.63
3,O=C(C1CCCN1S(=O)(=O)c1ccc(Cl)cc1)N1CCOCC1 (centres undefined),-0.0923
4,O=C(CSc1nnc(-c2ccccc2)n1-c1ccccc1)c1ccc[nH]1,-0.464
5,O=C(Oc1ccc2ccccc2c1)c1cncc(Br)c1,-0.00379
6,Cc1cccc(Oc2cnn(C(C)(C)C)c(=O)c2Cl)c1,-1.25
7,CCN(CC)S(=O)(=O)c1ccc(Cl)c(C(=O)Oc2cccc(-c3cnc4ccccc4n3)c2)c1,-0.179
8,N#CC1=C(N)NC(SCc2ccc(F)cc2)=C(C#N)C12CCCCC2,-0.126
9,C/C(=N/Nc1nc(-c2ccccc2)cc(-c2ccc(F)cc2)n1)c1cccc(N)c1,-0.225
10,COc1ccc(C(=O)Nc2ccc(N3CCCCC3)cc2)cc1Br,-0.00817
11,CC(C)NC(=O)CC1OC(=O)c2ccccc21 (centres undefined),1.29
12,FC(F)(F)c1ccc(/C=N/N2CCN(Cc3ccccc3)CC2)cc1,-0.332
13,CC(C)CCNC(=O)CSc1nc2ccccc2c(=O)[nH]1,-0.524
14,O=C(COc1ccc([N+](=O)[O-])cc1)N/N=C/c1ccccn1,-0.148
15,COc1ccc(NC(=O)CSc2nc(N)c(C(=O)Nc3ccc(N(C)C)cc3)s2)cc1,-0.404
16,CCOc1ccc(C2=Cc3cc(OC)c(OC)cc3C(=C(Cl)Cl)O2)cc1,0.236
17,Cc1cc(C(=O)NCCCN2CCN(C3CCCCC3)CC2)n(-c2ccccc2)n1,-0.136
18,Cc1nc(-c2cccc(NC(=O)c3cccs3)c2)cs1,-1.67
19,Cc1ccc(NC(=S)NC(NC(=O)c2ccccc2C)C(Cl)(Cl)Cl)c(C)c1 (centres undefined),-0.151
20,O=C(CSc1ncnc2c1oc1ccccc12)N1CCCc2ccccc21,-0.5
21,Cn1c(N2CCN(C(=O)NC34CC5CC(CC(C5)C3)C4)CC2)nc2ccccc21,-0.317
22,Cc1nnc(SCc2nc3ccccc3nc2C)s1,-0.127
23,c1ccc(-c2nc(-c3ccncc3)no2)cc1,-0.104

row,Compound,z-score
1,NS(=O)(=O)c1ccc(N=Cc2ccc(Br)s2)cc1,0.29
2,CCN1CCN(CCNC(=O)c2cn(Cc3ccccc3F)nn2)CC1,-0.203
3,CCOC(=O)c1sc2nc(CC(=O)OC)nc(NCCN(CC)CC)c2c1C,0.798
4,CCC(C)(C)NC(=O)c1ccc(Sc2nncn2C)c([N+](=O)[O-])c1,-0.281
5,CCOC(=O)C1CCN(C(=O)C(=O)N2CCC(C(=O)OCC)CC2)CC1,-0.854
6,CC(C)Sc1nnc(CNC(=O)C23CC4CC(CC(C4)C2)C3)n1C1CCCCC1,-0.462
7,COc1ccc(C2(CNC(=O)/C=C/c3ccco3)CCCC2)cc1OC,-0.281
8,O=C(CCSc1ccccc1)Nc1nc2c(s1)CCCC2,-0.0634
9,CC1=C(C(=O)Nc2ccccc2)C(c2ccc(C(C)C)cc2)N2C(=O)CSC2=N1 (centres undefined),-0.311
10,CCc1nnc(NC(=O)c2ccc3c(c2)C(=O)N(C(C)(C)C)C3=O)s1,0.0532
11,CCOC(=O)C(NC(C)=O)(Nc1ccc(S(=O)(=O)Nc2cc(C)on2)cc1)C(F)(F)F (centres undefined),0.128
12,CS(=O)(=O)N1CCC(C(=O)Nc2ccccc2F)CC1,-0.337
13,Cc1c(Cl)cccc1NC(=O)NC1CCCCC1,0.337
14,CCCn1c(NCc2cccc(OC)c2OC)nc2ccccc21,-0.349
15,O=S(=O)(c1cccs1)n1cccn1,-0.325
16,Nc1nc(SCC(=O)NC2CCCC2)[nH]c(=O)c1-c1ccccc1,-0.603
17,O=C(Nn1cnnc1)c1ccccc1CCc1ccccc1,0.0675
18,O=C(Nc1ccccc1)Nc1nccs1,1.3
19,N#Cc1cccc(NC(=S)Nc2ccccc2)c1,0.595
20,COc1c2occc2c(OC)c2c(=O)cc(C(F)(F)F)oc12,2.92
21,Cc1n[nH]c(=O)n1-c1ccc(Oc2ccccc2)cc1,-0.481
22,CCSc1nnc2nc(C)cc(C)n12,-0.0279
23,O=C(CSc1nc(-c2ccccc2)cc(=O)[nH]1)N1CCc2ccccc21,active: 9.86

row,Compound,z-score
1,COc1cccc(NC(=O)C(OC(=O)c2ccccc2NS(=O)(=O)c2cccs2)c2ccccc2)c1 (centres undefined),-0.172
2,c1ccc(-c2nc(NCCCn3ccnc3)c3oc4ccccc4c3n2)cc1,-0.0957
3,CC(C)c1nnc(NC(=O)CCCCCN2C(=O)C3C4C=CC(C4)C3C2=O)s1 (centres undefined),-0.165
4,CCn1ncc(C2=NOC(C(=O)NCC(C)C)C2)c1C (centres undefined),-0.21
5,Cc1cccc(C)c1NC(=O)CC1SC2=NCCN2C1=O (centres undefined),1.06
6,COC1=C(Nc2ccc(OC)cc2)C(=O)c2ccccc2C1=O,-0.233
7,O=C(Oc1cccnc1)c1ccco1,-0.0559
8,O=C(O)CCc1ccc(-c2cccs2)n1CCC(=O)O,-0.221
9,CC(C)(C)C(=O)CNS(=O)(=O)c1ccc(S(=O)(=O)NC2CCCC2)cc1,0.0762
10,O=C(NCCC1=CCCCC1)C1CCN(S(=O)(=O)c2cccc3nonc23)CC1,0.225
11,Cc1ccccc1OCC(=O)NCCC(=O)O,0.0367
12,CCn1c(-c2cccs2)nc2ccccc21,-0.122
13,Cc1cc(OCc2nc(-c3cccs3)no2)cc(C)c1Cl,0.00195
14,Cc1ccc(C(=O)NC(=S)Nc2ccc(NC(=O)c3cccs3)cc2)cc1[N+](=O)[O-],-0.0512
15,COc1ccc(/C=N/NC(=O)CCN2CCN(c3ccccc3)CC2)c(OC)c1OC,-0.366
16,CCCn1cc(NC(=O)C2CC(c3cccc(Br)c3)=NO2)cn1 (centres undefined),-0.352
17,COc1ccc(-c2cc(C(F)(F)F)c3c(n2)sc2c(O)cc(=O)[nH]c23)c(OC)c1,active: 5.32
18,COc1cccc(NC(=S)N2CCN(Cc3ccccc3)CC2)c1,0.0461
19,COc1cccc(Nc2ncnc3ccccc23)c1,-0.25
20,CN(C(=O)c1ccccc1Cl)C1CCCCC1,0.549
21,CCc1ccc(NC(=O)CSC2=C(C#N)C(c3ccco3)C3=C(CCCC3=O)N2)cc1 (centres undefined),-1.16
22,CCc1ccccc1NC(=O)Cn1nc(C(F)(F)F)c2c1CCC2,1.15
23,CC1CCCC(C)N1C(=O)CN1CCN(c2nc(-c3ccc(F)cc3)cs2)CC1 (centres undefined),-1.12

row,Compound,z-score
1,CC(=O)c1nn(-c2cccc(Br)c2)cc1C(=O)c1ccco1,0.0966
2,C(=N\Nc1nc2ccccc2[nH]1)/c1c[nH]c2ccccc12,-0.588
3,Cc1cc(C)n(-c2c(F)c(F)c(CO)c(F)c2F)n1,-0.22
4,O=S(=O)(NC12CC3CC(CC(C3)C1)C2)c1ccc(F)cc1,1.1
5,C=CCn1c(SCc2ccc3nonc3c2)nnc1-c1cccs1,-0.249
6,Cc1cc(C)c(S(=O)(=O)O)c(C)n1,0.179
7,COc1ccnc(Oc2ccc(F)cc2)c1C(=O)N/C=N/OCc1ccc(Cl)cc1Cl,0.11
8,O=C(Cn1cnnn1)OCC(=O)c1ccc(Cl)s1,0.489
9,Nc1nc2n(n1)C(c1ccco1)CC(c1ccc(Cl)c(Cl)c1)N2 (centres undefined),2.38
10,O=C(Nc1cccnc1)c1ccc(Cl)c(S(=O)(=O)N2CCCCCC2)c1,-0.876
11,COc1ccccc1C(=O)NNC(=S)NC(=O)c1ccco1,1.4
12,C=CCOc1ccc(/C(CC)=N/O)cc1OC,0.241
13,COc1ccc(NC(=O)c2cccnc2NCCc2ccccc2)cc1,-0.101
14,CCOc1cc(C2C3=C(CCCC3=O)NC3=C2C(=O)CCC3)ccc1OCCO,-0.386
15,O=c1cc(CSc2nc3ccccc3[nH]2)c2ccccc2[nH]1,-0.605
16,Cc1cccc(Oc2ncc(-c3ccc(Cl)cc3)cn2)c1C,0.014
17,COc1ccc(C(=O)Nc2ccc3c(c2)nc2n3CCSC2)cc1,-0.443
18,COc1ccc(NC(=O)CN(C2CCCCC2)S(C)(=O)=O)cc1Cl,-0.0869
19,Cc1ccc(O)c(C=Nc2cc(C)ccc2O)c1,-0.107
20,CC(C)(C)c1ccc(C(=O)CS(=O)(=O)c2ccccc2)cc1,0.0407
21,COc1cc(NC(=O)c2cc3nc(-c4ccccc4)cc(-c4ccccc4)n3n2)cc(OC)c1OC,-0.204
22,CCCc1nnc2n1N=C(c1ccc(OC)c(OC)c1)CS2,active: -3.5
23,N#Cc1nc(Cc2ccccc2)oc1NCCCn1ccnc1,-0.784

row,Compound,z-score
1,CC(C)CCn1c(Sc2nc3ccccc3s2)nc2c1c(=O)[nH]c(=O)n2C,0.88
2,Cc1cccc(-c2noc(CN(C(=O)c3ccc(Br)o3)C(C)C)n2)c1,-0.599
3,Cc1cccc2cc(C3CC(c4cccs4)=NN3C(=O)CCC(=O)O)c(Cl)nc12 (centres undefined),-0.298
4,COc1cccc(NC(=O)C(OC(=O)c2ccc([N+](=O)[O-])o2)c2ccccc2)c1 (centres undefined),-0.8
5,CS(=O)(=O)N(CC(=O)N1CCN(c2ccccc2F)CC1)c1cc(C(F)(F)F)ccc1Cl,0.422
6,O=S(=O)(c1ccc2oc3ccc(S(=O)(=O)N4CCCCC4)cc3c2c1)N1CCCCC1,-0.437
7,Cc1nnc(NC(=O)c2c(F)c(F)c(F)c(F)c2F)s1,-0.26
8,COc1ccccc1CSc1nc2ccccc2[nH]1,-0.12
9,c1cncc(-c2nnc(-c3ccco3)o2)c1,-0.101
10,COc1cc(C2C(N3C(=O)c4ccccc4C3=O)C(=O)N2c2ccc(C)c(C)c2)cc(OC)c1OC (centres undefined),0.503
11,CCOc1ccc(NC(=O)CSc2nnc(C)n2CC2CCCO2)cc1 (centres undefined),-0.429
12,C=CCNc1nnc(Cl)c2ccccc12,0.165
13,O=c1c(-c2nnc(SCc3ccc(Cl)cc3)o2)cccn1Cc1ccccc1,0.618
14,O=C(CCn1nnc(-c2cccs2)n1)NCc1ccccc1Cl,-0.126
15,CC1CCCC(NC2CCCCNC2=O)C1 (centres undefined),0.454
16,COc1ccc(-c2nn(C)c(=O)c3ccccc23)cc1CNC(=O)CN1CCOCC1,0.293
17,CC(=O)Nc1cc(-c2nn(C)c(=O)c3ccccc23)ccc1N1CCOCC1,-0.149
18,COc1ccc(NC(=O)Cn2c(=O)n(CC(=O)NCc3ccco3)c(=O)c3ccccc32)cc1OC,-0.0297
19,COc1cc(C(=O)N2CCN(S(=O)(=O)c3ccc(F)cc3)CC2)cc(OC)c1OC,-0.0276
20,COc1ccc(CNC(N)=O)cc1,0.189
21,CCOc1nc(N2CCCCC2)nc(-n2cc(-c3ccccc3)nn2)n1,-0.0557
22,CCN(CC)C(=S)SCC(=O)c1ccc(F)cc1,-0.176
